Laboratory results from the supplement of paper PMC7125110.
This sample is rich in variants without activity.

B1: glmS ribozyme (parent)
chain: AUAAAAGCGCCAGAACUACAGAAAUGUAGUUGACGAGGAGGAGGUUUAUCGAAUUUUCGGCGGAUGCCUCCAAA

How the values were obtained:
Details in all cases: with glucosamine-6-phosphate
glucosamine-6-phosphate [1] = variants of: B1; assay: self-cleavage kobs at 40 uM GlcN6P; higher = faster cleavage; RNA array
How it was run: (§1)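 kcat and KM were obtained from weighted Michaelis–Menten fits across concentrations of kobs values. Those came from one- or two-exponential decay fits to per-tile medians normalised to baseline and to non-cleaving reference variants. The variants were barcoded ribozymes transcribed in situ by E. coli RNA polymerase on sequenced MiSeq chips and tracked through a hybridised Cy3 probe at 37 °C, with 40 μM to 10 mM glucosamine-6-phosphate in HEPES/KCl/Mg(OAc)2 buffer flowed in.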

glucosamine-6-phosphate [2] = variants of: B1; assay: self-cleavage kobs at 640 uM GlcN6P; higher = faster cleavage; RNA array
How it was run: as §1

glucosamine-6-phosphate [3] = variants of: B1; assay: self-cleavage kobs at 160 uM GlcN6P; higher = faster cleavage; RNA array
How it was run: as §1

glucosamine-6-phosphate [4] = variants of: B1; assay: self-cleavage kobs at 2500 uM GlcN6P; higher = faster cleavage; RNA array
How it was run: as §1

glucosamine-6-phosphate [5] = variants of: B1; assay: self-cleavage kobs at 10000 uM GlcN6P; higher = faster cleavage; RNA array
How it was run: as §1

For U31G G63U, the “self-cleavage kobs at 40 uM GlcN6P” value (glucosamine-6-phosphate [1]) was < 1e-05 s⁻¹, the “self-cleavage kobs at 640 uM GlcN6P” value (glucosamine-6-phosphate [2]) was < 1e-05 s⁻¹ and the “self-cleavage kobs at 160 uM GlcN6P” value (glucosamine-6-phosphate [3]) was < 1e-05 s⁻¹. The “self-cleavage kobs at 2500 uM GlcN6P” value (glucosamine-6-phosphate [4]) was < 1e-05 s⁻¹ and the “self-cleavage kobs at 10000 uM GlcN6P” value (glucosamine-6-phosphate [5]) was < 1e-05 s⁻¹.

A33G A53C was tested, and the “self-cleavage kobs at 40 uM GlcN6P” value (glucosamine-6-phosphate [1]) was < 1e-05 s⁻¹, the “self-cleavage kobs at 640 uM GlcN6P” value (glucosamine-6-phosphate [2]) was < 1e-05 s⁻¹ and the “self-cleavage kobs at 2500 uM GlcN6P” value (glucosamine-6-phosphate [4]) was < 1e-05 s⁻¹. For the same variant, the “self-cleavage kobs at 10000 uM GlcN6P” value (glucosamine-6-phosphate [5]) was < 1e-05 s⁻¹.

G32A C68A was tested, and the “self-cleavage kobs at 40 uM GlcN6P” value (glucosamine-6-phosphate [1]) was < 1e-05 s⁻¹.

In the case of G32A A52C, the “self-cleavage kobs at 40 uM GlcN6P” value (glucosamine-6-phosphate [1]) is reported as < 1e-05 s⁻¹ and the “self-cleavage kobs at 640 uM GlcN6P” value (glucosamine-6-phosphate [2]) is reported as < 1e-05 s⁻¹.

For G32A A52U, the “self-cleavage kobs at 40 uM GlcN6P” value (glucosamine-6-phosphate [1]) was < 1e-05 s⁻¹ and the “self-cleavage kobs at 160 uM GlcN6P” value (glucosamine-6-phosphate [3]) was < 1e-05 s⁻¹.

In the case of G32C G51C G59U C71U, the “self-cleavage kobs at 40 uM GlcN6P” value (glucosamine-6-phosphate [1]) is reported as < 1e-05 s⁻¹ and the “self-cleavage kobs at 10000 uM GlcN6P” value (glucosamine-6-phosphate [5]) is reported as < 1e-05 s⁻¹.

A33G A36C was tested, and the “self-cleavage kobs at 40 uM GlcN6P” value (glucosamine-6-phosphate [1]) was < 1e-05 s⁻¹, the “self-cleavage kobs at 640 uM GlcN6P” value (glucosamine-6-phosphate [2]) was < 1e-05 s⁻¹ and the “self-cleavage kobs at 160 uM GlcN6P” value (glucosamine-6-phosphate [3]) was < 1e-05 s⁻¹. The “self-cleavage kobs at 10000 uM GlcN6P” value (glucosamine-6-phosphate [5]) was < 1e-05 s⁻¹.

With G32A A36U G44U the “self-cleavage kobs at 40 uM GlcN6P” value (glucosamine-6-phosphate [1]) was < 1e-05 s⁻¹ and the “self-cleavage kobs at 10000 uM GlcN6P” value (glucosamine-6-phosphate [5]) was < 1e-05 s⁻¹.

For U31G A64C, the “self-cleavage kobs at 40 uM GlcN6P” value (glucosamine-6-phosphate [1]) was < 1e-05 s⁻¹ and the “self-cleavage kobs at 160 uM GlcN6P” value (glucosamine-6-phosphate [3]) was < 1e-05 s⁻¹.

For G32U G35U C58G, the “self-cleavage kobs at 40 uM GlcN6P” value (glucosamine-6-phosphate [1]) was < 1e-05 s⁻¹ and the “self-cleavage kobs at 10000 uM GlcN6P” value (glucosamine-6-phosphate [5]) was < 1e-05 s⁻¹.

For G32A G43U, the “self-cleavage kobs at 40 uM GlcN6P” value (glucosamine-6-phosphate [1]) was < 1e-05 s⁻¹, the “self-cleavage kobs at 640 uM GlcN6P” value (glucosamine-6-phosphate [2]) was < 1e-05 s⁻¹ and the “self-cleavage kobs at 2500 uM GlcN6P” value (glucosamine-6-phosphate [4]) was < 1e-05 s⁻¹.

For A33C A64U, the “self-cleavage kobs at 40 uM GlcN6P” value (glucosamine-6-phosphate [1]) was < 1e-05 s⁻¹, the “self-cleavage kobs at 640 uM GlcN6P” value (glucosamine-6-phosphate [2]) was < 1e-05 s⁻¹ and the “self-cleavage kobs at 160 uM GlcN6P” value (glucosamine-6-phosphate [3]) was < 1e-05 s⁻¹. For the same variant, the “self-cleavage kobs at 2500 uM GlcN6P” value (glucosamine-6-phosphate [4]) was < 1e-05 s⁻¹.

With U31C G59C the “self-cleavage kobs at 40 uM GlcN6P” value (glucosamine-6-phosphate [1]) was < 1e-05 s⁻¹, the “self-cleavage kobs at 2500 uM GlcN6P” value (glucosamine-6-phosphate [4]) was < 1e-05 s⁻¹ and the “self-cleavage kobs at 10000 uM GlcN6P” value (glucosamine-6-phosphate [5]) was < 1e-05 s⁻¹.

G32C G41A was tested, and the “self-cleavage kobs at 40 uM GlcN6P” value (glucosamine-6-phosphate [1]) was < 1e-05 s⁻¹, the “self-cleavage kobs at 640 uM GlcN6P” value (glucosamine-6-phosphate [2]) was < 1e-05 s⁻¹ and the “self-cleavage kobs at 160 uM GlcN6P” value (glucosamine-6-phosphate [3]) was < 1e-05 s⁻¹.

With G32U A52C the “self-cleavage kobs at 40 uM GlcN6P” value (glucosamine-6-phosphate [1]) was < 1e-05 s⁻¹.

For A33G G38A, the “self-cleavage kobs at 40 uM GlcN6P” value (glucosamine-6-phosphate [1]) was < 1e-05 s⁻¹, the “self-cleavage kobs at 640 uM GlcN6P” value (glucosamine-6-phosphate [2]) was < 1e-05 s⁻¹ and the “self-cleavage kobs at 10000 uM GlcN6P” value (glucosamine-6-phosphate [5]) was < 1e-05 s⁻¹.

For U31C G32A G60U, the “self-cleavage kobs at 40 uM GlcN6P” value (glucosamine-6-phosphate [1]) was < 1e-05 s⁻¹.

In the case of U31G U55G C58U, the “self-cleavage kobs at 40 uM GlcN6P” value (glucosamine-6-phosphate [1]) is reported as < 1e-05 s⁻¹.

In the case of A33C G51C, the “self-cleavage kobs at 40 uM GlcN6P” value (glucosamine-6-phosphate [1]) is reported as < 1e-05 s⁻¹, the “self-cleavage kobs at 640 uM GlcN6P” value (glucosamine-6-phosphate [2]) is reported as < 1e-05 s⁻¹ and the “self-cleavage kobs at 160 uM GlcN6P” value (glucosamine-6-phosphate [3]) is reported as < 1e-05 s⁻¹. For the same variant, the “self-cleavage kobs at 2500 uM GlcN6P” value (glucosamine-6-phosphate [4]) was < 1e-05 s⁻¹.

In the case of G32A A36G G41A, the “self-cleavage kobs at 40 uM GlcN6P” value (glucosamine-6-phosphate [1]) is reported as < 1e-05 s⁻¹ and the “self-cleavage kobs at 2500 uM GlcN6P” value (glucosamine-6-phosphate [4]) is reported as < 1e-05 s⁻¹.

For U31G U49C, the “self-cleavage kobs at 40 uM GlcN6P” value (glucosamine-6-phosphate [1]) was < 1e-05 s⁻¹, the “self-cleavage kobs at 640 uM GlcN6P” value (glucosamine-6-phosphate [2]) was < 1e-05 s⁻¹ and the “self-cleavage kobs at 160 uM GlcN6P” value (glucosamine-6-phosphate [3]) was < 1e-05 s⁻¹. The “self-cleavage kobs at 2500 uM GlcN6P” value (glucosamine-6-phosphate [4]) was < 1e-05 s⁻¹ and the “self-cleavage kobs at 10000 uM GlcN6P” value (glucosamine-6-phosphate [5]) was < 1e-05 s⁻¹.

With C34A G40C A52C C61A G62U C68G the “self-cleavage kobs at 40 uM GlcN6P” value (glucosamine-6-phosphate [1]) was < 1e-05 s⁻¹ and the “self-cleavage kobs at 10000 uM GlcN6P” value (glucosamine-6-phosphate [5]) was < 1e-05 s⁻¹.

With G32U C34U the “self-cleavage kobs at 40 uM GlcN6P” value (glucosamine-6-phosphate [1]) was < 1e-05 s⁻¹.

In the case of C34A A53U, the “self-cleavage kobs at 40 uM GlcN6P” value (glucosamine-6-phosphate [1]) is reported as < 1e-05 s⁻¹, the “self-cleavage kobs at 640 uM GlcN6P” value (glucosamine-6-phosphate [2]) is reported as < 1e-05 s⁻¹ and the “self-cleavage kobs at 160 uM GlcN6P” value (glucosamine-6-phosphate [3]) is reported as < 1e-05 s⁻¹.

With A33U A39U G40U the “self-cleavage kobs at 40 uM GlcN6P” value (glucosamine-6-phosphate [1]) was < 1e-05 s⁻¹.
